# Data published in ChEMBL document CHEMBL4888484, “Replenishing the malaria drug discovery pipeline: Screening and hit evaluation of the MMV Hit Generation Library 1 (HGL1) against asexual blood stage Plasmodium falciparum ,using a nano luciferase reporter read-out” (2022).
# In all, about 150,000 compounds went through this assay and about 540 (0.36%) showed an effect of 50% or more. The list shows a part of the results.
# System: Plasmodium falciparum
# Assay: Primary screen in NF54 nanoGlo assay, in single point, at 2uM, 72h; a lower Z score goes with more inhibition
# Type: functional, Erythrocyte
# Details: timepoint 72 hour
Structure (SMILES),% Inhibition,Z score
Cc1ccc(F)c(NC(=O)N2CCCC[C@@H]2CCN2CCN(C)CC2)c1,-2%,0.3
CC(C)(C)c1cnc(CCC(=O)N[C@H]2CCCCC23CCCC3)o1,-13%,1.21
CCOc1cc(-c2nnc(NC(=O)c3cc(C)on3)o2)cc(OCC)c1OCC,3%,-0.43
Cc1ncc(C(=O)NC2(C(C)C)CC2)c(=O)[nH]1,2%,-0.26
O=C(c1cc(O)nc2ccccc12)N1CCC(c2nc3ccccc3o2)CC1,3%,-0.42
CCCn1cc(CN2CCN(CCOC)[C@@H]3CS(=O)(=O)C[C@@H]32)c(C)n1,-5%,0.99
COc1cccc(-c2nc3ccccn3c2CN2CCNCC2)c1,9%,-0.99
CCOC(=O)c1c(CN(C)C)n(-c2ccc(OC)cc2)c2ccc(Oc3ncccc3C#N)cc12,-42%,4.94
Cc1c(CNC[C@@]2(C)CCN(C(=O)OC(C)(C)C)C2)cnn1C,2%,-0.26
COC[C@H](NC(=O)NCC(F)F)c1ccc(Cl)cc1,-9%,1.22
CCc1cnc(C)nc1N1CCC(NCCOc2ccccc2F)CC1,-8%,0.74
O=C(Cc1cc(C2CC2)no1)N1CCCS(=O)(=O)C[C@H]1C1CC1,4%,-0.73
COc1cc(-c2nccn2CC2(Cn3ccnc3C)CC2)cc(Cl)c1O,-13%,2.06
COc1ccc2c(c1)CCc1c(C(=O)NCCc3nc4ccccc4[nH]3)n[nH]c1-2,2%,-0.19
CC(C)[C@H](C)N(Cc1ccco1)C(=O)c1ccc(CCN2CCCC2)nc1,-5%,1.01
O[C@H](COc1cccc2c1CCCC2)CN1CCOCC1,-9%,0.79
CCn1cc(CN(C)c2ccnc(C(=O)NCc3ccoc3)c2)c(C)n1,-1%,0.08
CC(C(=O)NCC1CCCO1)N1CCCCC1Cn1cccn1 (stereo unspecified),2%,-0.39
Cc1cc(C)c2c(N)c(-c3nc(-c4ccsc4)no3)sc2n1,-24%,3.22
Cc1n[nH]c(C)c1-c1c(-c2ccccc2)ncn1C1CC(C)(C)NC(C)(C)C1,3%,-0.45
Cn1c(=O)nc(O)c2c1nc(Br)n2CC(=O)O.Cn1c(=O)nc(O)c2c1nc(N1CCCCC1)n2C[C@H](O)CN1CCCCC1,-2%,0.2

Structure (SMILES),% Inhibition,Z score
C=C(C)CNC(N)=NCc1cccc(C(=O)N2CCCC2)c1,7%,-1.14
CCCS(=O)(=O)N1CCC(F)(C(=O)N2CCCC2)CC1,-3%,0.45
COc1ccc(NC(=O)[C@]2(C)Oc3cccnc3NC2=O)cc1,-4%,0.74
CC(C)(C)c1nc(Cn2ccc(-c3cccc(-c4ncccn4)c3)n2)no1,-14%,1.3
N[C@H]1CC[C@H](Nc2ncc(Cl)cc2Cl)C1,-1%,0.12
O=C(CCNC(=O)C1CCCC1)NCc1ccccc1Cl,-5%,0.66
O=C(Nc1nnc[nH]1)c1cc(S(=O)(=O)N2CCCCC2)ccc1Cl,2%,-0.3
COc1cccc(NC(=O)C(C#N)C(=O)CC2CCCO2)c1 (stereo unspecified),-19%,1.75
Cc1ccc(NC(=O)c2nnn(-c3ccc(C)c(C)c3)c2-c2cccnc2)c(C)c1,-9%,0.8
Cc1csc(C(NS(=O)(=O)CC2CCCS(=O)(=O)C2)C2CC2)n1 (stereo unspecified),-5%,1.06
O=C1N(CC2CCC2)CCC[C@@]12CCN(Cc1ccc(F)cc1F)C2,-12%,1.53
Cc1ccsc1C(=O)N1CC[S@+]([O-])C(C)(C)C1,-7%,0.87
CN(C[C@H]1CCCO1)S(=O)(=O)c1ccc(-c2cc(C(F)(F)F)[nH]n2)o1,-1%,0.16
CC1CC1C(NCc1cn2cccnc2n1)c1ccc(Cl)cc1 (stereo unspecified),-8%,0.77
O=C(O)[C@H]1CN(C(=O)c2cccc(-c3ncc[nH]3)c2)C[C@@H]1c1cccnc1,-16%,1.48
O=C(CCc1nc(-c2ccc(S(=O)(=O)N3CCOCC3)cc2)no1)NC1CCCC1,-11%,1.26
CCOc1ncccc1C(=O)NC1(C(=O)OC)CCS(=O)(=O)CC1,-2%,0.31
COc1ccc(OCc2cc(C(=O)N3CCCCCCC3)n[nH]2)c(Cl)c1,3%,-0.4
COCC(=O)Nc1cc(C(C)C)c(O)cc1C,-8%,1.06
CC(=O)N1CCO[C@H](C(=O)Nc2cccc3ccsc23)C1,15%,-1.86
Cc1ccc(-c2noc(N3CCO[C@H](c4nc(C)cs4)C3)n2)cc1,-9%,1.45

Structure (SMILES),% Inhibition,Z score
CC1(C)C[C@H](N(Cc2ccccc2)C(=O)c2cc(N3CCOC3=O)ccc2F)C(C)(C)O1,1%,-0.13
Cc1cc(Cc2nnc(COc3ccc(C(C)(C)C)cc3)o2)no1,-8%,1.42
CC(C)C(=O)Nc1cccnc1-c1ccc([C@H](C)N2CCOCC2)cc1,-16%,3.24
CN1CCN(S(=O)(=O)N2CCN(Cc3ccc(-n4cccn4)cc3)CC2)CC1,1%,-0.1
Cc1[nH]c2ccccc2c1C1C(CCNC(=O)c2ccc(Cl)cc2)C1(C)C (stereo unspecified),-26%,3.03
O=C(O)c1ccc(OCCN2CC[C@@H]3OCC[C@@H]3C2)c(Cl)c1,8%,-0.96
CCc1c(C)nc(-c2cccc(C)c2)nc1N1CCN(C(=O)c2ccc(C)cc2)CC1,-6%,1.06
COc1ccccc1N1CCN(C(=O)C[C@H](c2ccc(F)cc2)c2c[nH]c3ccccc23)CC1,-4%,0.7
CC1CCN(C(=O)c2ccc(N3CCS(=O)(=O)C[C@@H](C)C3)nc2)CC1,3%,-0.39
CC(=O)N[C@H]1C[C@H]2CN(Cc3cccn3C)CC(=O)N2C1,-13%,1.18
COc1ccc(CN2CC[C@H]3[C@H](CCC(=O)N3CCc3cccc(F)c3)C2)c(OC)c1OC,-4%,0.53
Oc1ccc(Cl)c(CN2C[C@H]3CC[C@@H](C2)[C@H]3O)c1Cl,-2%,0.22
COc1ccc(OC)c(NC(=O)N2CC[C@H](N(CCCN3CCCC3)C(=O)C(C)C)C2)c1,-2%,0.27
O=C(Nc1ccsc1C(=O)N1CCCCC1)c1cnccn1,37%,-4.76
Cc1ccc(-c2nc(-c3ccc(C(=O)N4CCCCC4)s3)no2)cc1,-22%,2.85
Cc1cc(C(=O)NCCCNc2cccc(F)c2)no1,-1%,0.1
CC(C)C(CNC(=O)N1CC(C(N)=O)O[C@H](C)C1)Cc1ccccc1 (stereo partly specified),2%,-0.33
Cc1ccc(C)c(S(=O)(=O)Nc2cc(C(=O)O)cnc2N(C)C)c1,4%,-0.7
Cc1c(C(=O)OC[C@@]2(C)CCCO2)cnn1CC(C)C,-8%,1
COc1ccccc1C(=O)N1CCN(c2cc(N(C)C)nc(C)n2)CC1,-4%,0.61
COC(=O)c1ccc(CN2CCC3(CC2)C[C@@H]3C(=O)OC)nc1,-6%,0.88

Structure (SMILES),% Inhibition,Z score
CC(C)C1NC2(C(=O)Nc3ccccc32)C2C(=O)N(c3ccc(Br)cc3)C(=O)C12 (stereo unspecified),-5%,0.47
CCc1nc(C)c(CNS(=O)(=O)N2CCOCC2)s1,-11%,1.37
Cc1occc1C(=O)NC(C)C1CC2CCC1C2 (stereo unspecified),4%,-0.52
Cc1ncsc1CN(Cc1ccccc1)C(=O)C[C@H](C)n1ccnc1,2%,-0.44
Oc1cccc(-c2cn(Cc3scnc3-c3ccccc3)nn2)c1,-14%,1.93
Cc1nc(CNC(=O)c2cc(=O)[nH]c(C3CC3)n2)ccc1[C@H](C)O,-11%,2.25
O=C(NC[C@H]1CCCO1)c1cccc2cc(O)ccc12,-9%,1.17
CC(C)(C)CNC(=O)C(C)(C)NC(=O)Nc1nc2ccccn2n1,-2%,0.24
Cn1nccc1[C@H](O)c1cc2n(n1)CCN(C1Cc3ccccc3C1)C2,9%,-1.19
OCc1ccc(-c2nccn2-c2ccc3ncsc3c2)o1,-3%,0.55
C[C@H](NS(=O)(=O)CCCCC#N)C(=O)NC1CCCC1,-2%,0.33
COc1cccc(CNC(=O)N[C@H]2CCN(c3ccc(F)cc3)C2=O)c1,3%,-0.38
CC(N[C@@H]1CCCC[C@H]1O)c1cc(Br)ccc1F (stereo partly specified),-2%,0.23
Fc1cccc(C2(c3nc([C@@H]4CCCO4)no3)CCC2)c1,-8%,1.06
CC1=C(C)CN(C(=O)CN2CCCCC2=O)CC1,-16%,1.86
CCCn1c(C)nnc1COc1ccccc1-c1nccs1,0%,0.07
CN(C)C(=O)NCC(=O)N1CCC[C@](C)(C#N)C1,-11%,0.94
COc1ccc(CCN(CCc2nc(-c3ccc(C)cc3)no2)C(=O)COCc2ccccc2)cc1OC,0%,-0.06
CN=C(NCCCOC[C@H]1CCCO1)NCc1ccc(N(C)C)cc1,-13%,1.13
CC(C)CCN1CC(=O)N(c2ccc(C(C)C)cc2)C2CS(=O)(=O)CC21 (stereo unspecified),4%,-0.6
